# In the supplement of paper PMC8728848:
# This is one part of the list.
# B1: CLECb-Precomplexed (Mus musculus), P43025 (protein)
# chain: MAKNGLVLCILVVSLLLDQTDGYPSRMKARKHSKRRVKAKDDDLKSQVEKLWREVNALKEMQALQTVCLRGTKVHKKCYLASEGLKHYHEANEDCISKGGTLVVPRNSDEINALRDYGKRSLPGVNDFWLGINDMVTEGKFLDVHGFAVSFLNWDRAQPSGGKRENCVLFSQSAQGKWSDEACRSSKRYICEFIIPTRTRPLEQKLISEEDLAANDILDYKDDDDKV
# Legend:
# Experiment in all cases: glycan array binding signal (z-score within array); higher = stronger binding
# Settings in all cases: glycan notation: IUPAC condensed, linker removed
# [1] = molecular target: Fuc(a1-2)[Gal(a1-3)]Gal(b1-3)GlcNAc
# Method in brief: (§1)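 Glycan array data were curated from 3228 arrays in the Consortium for Functional Glycomics database and kept only where the protein sequence was available. Glycan names were converted to IUPAC-condensed notation, and columns mapping to the same glycan were averaged. The binding signal is a within-array Z-score, averaged across arrays of the same protein sequence at different concentrations or buffers and across linkers. Negative Z-scores can be read as non-binding.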
# [2] = molecular target: Fuc(a1-2)[Gal(a1-3)]Gal(b1-3)GlcNAc(b1-2)Man(a1-3)[Fuc(a1-2)[Gal(a1-3)]Gal(b1-3)GlcNAc(b1-2)Man(a1-6)]Man(b1-4)GlcNAc(b1-4)GlcNAc
# Method in brief: as §1
# [3] = molecular target: Fuc(a1-2)[Gal(a1-3)]Gal(b1-3)GlcNAc(b1-2)Man(a1-3)[Fuc(a1-2)[Gal(a1-3)]Gal(b1-3)GlcNAc(b1-2)Man(a1-6)]Man(b1-4)GlcNAc(b1-4)[Fuc(a1-6)]GlcNAc
# Method in brief: as §1
# [4] = molecular target: Fuc(a1-2)[Gal(a1-3)]Gal(b1-3)GlcNAc(b1-3)GalNAc
# Method in brief: as §1
# [5] = molecular target: Fuc(a1-2)[Gal(a1-3)]Gal(b1-3)GlcNAc(b1-6)GalNAc
# Method in brief: as §1
# [6] = molecular target: Fuc(a1-2)[Gal(a1-3)]Gal(b1-4)Glc
# Method in brief: as §1
# [7] = molecular target: Fuc(a1-2)[Gal(a1-3)]Gal(b1-4)GlcNAc
# Method in brief: as §1
# [8] = molecular target: Fuc(a1-2)[Gal(a1-3)]Gal(b1-4)GlcNAc(b1-2)Man
# Method in brief: as §1
# [9] = molecular target: Fuc(a1-2)[Gal(a1-3)]Gal(b1-4)GlcNAc(b1-2)Man(a1-3)[Fuc(a1-2)[Gal(a1-3)]Gal(b1-4)GlcNAc(b1-2)Man(a1-6)]Man(b1-4)GlcNAc(b1-4)GlcNAc
# Method in brief: as §1
# [10] = molecular target: Fuc(a1-2)[Gal(a1-3)]Gal(b1-4)GlcNAc(b1-2)Man(a1-3)[Fuc(a1-2)[Gal(a1-3)]Gal(b1-4)GlcNAc(b1-2)Man(a1-6)]Man(b1-4)GlcNAc(b1-4)[Fuc(a1-6)]GlcNAc
# Method in brief: as §1
# [11] = molecular target: Fuc(a1-2)[Gal(a1-3)]Gal(b1-4)GlcNAc(b1-3)GalNAc
# Method in brief: as §1
# [12] = molecular target: Fuc(a1-2)[Gal(a1-3)]Gal(b1-4)GlcNAc(b1-6)GalNAc
# Method in brief: as §1
# [13] = molecular target: Fuc(a1-2)[Gal(a1-3)]Gal(b1-4)[Fuc(a1-3)]Glc
# Method in brief: as §1
# [14] = molecular target: Fuc(a1-2)[Gal(a1-3)]Gal(b1-4)[Fuc(a1-3)]GlcNAc
# Method in brief: as §1
# [15] = molecular target: Fuc(a1-2)[Gal(a1-3)]Gal(b1-4)[Fuc(a1-3)]GlcNAc(b1-3)GalNAc
# Method in brief: as §1
# [16] = molecular target: Fuc(a1-2)[Gal(a1-4)]Gal(b1-4)GlcNAc
# Method in brief: as §1
# [17] = molecular target: Fuc(a1-2)[GalNAc(a1-3)]Gal
# Method in brief: as §1
# [18] = molecular target: Fuc(a1-2)[GalNAc(a1-3)]Gal(b1-3)GalNAc(a1-3)[Fuc(a1-2)]Gal(b1-4)GlcNAc
# Method in brief: as §1
# [19] = molecular target: Fuc(a1-2)[GalNAc(a1-3)]Gal(b1-3)GalNAc(b1-3)Gal(a1-4)Gal(b1-4)Glc
# Method in brief: as §1
# [20] = molecular target: Fuc(a1-2)[GalNAc(a1-3)]Gal(b1-3)GlcNAc
# Method in brief: as §1
# [21] = molecular target: Fuc(a1-2)[GalNAc(a1-3)]Gal(b1-3)GlcNAc(b1-2)Man(a1-3)[Fuc(a1-2)[GalNAc(a1-3)]Gal(b1-3)GlcNAc(b1-2)Man(a1-6)]Man(b1-4)GlcNAc(b1-4)GlcNAc
# Method in brief: as §1
# [22] = molecular target: Fuc(a1-2)[GalNAc(a1-3)]Gal(b1-3)GlcNAc(b1-2)Man(a1-3)[Fuc(a1-2)[GalNAc(a1-3)]Gal(b1-3)GlcNAc(b1-2)Man(a1-6)]Man(b1-4)GlcNAc(b1-4)[Fuc(a1-6)]GlcNAc
# Method in brief: as §1
# [23] = molecular target: Fuc(a1-2)[GalNAc(a1-3)]Gal(b1-3)GlcNAc(b1-3)GalNAc
# Method in brief: as §1
binder,measurement,setting,value
B1,glycan array binding signal (z-score),[1],-0.221
same,glycan array binding signal (z-score),[2],0.234
same,glycan array binding signal (z-score),[3],-0.064
same,glycan array binding signal (z-score),[4],0.218
same,glycan array binding signal (z-score),[5],-0.196
same,glycan array binding signal (z-score),[6],-0.054
same,glycan array binding signal (z-score),[7],-0.552
same,glycan array binding signal (z-score),[8],-0.194
same,glycan array binding signal (z-score),[9],0.668
same,glycan array binding signal (z-score),[10],0.104
same,glycan array binding signal (z-score),[11],0.038
same,glycan array binding signal (z-score),[12],-0.136
same,glycan array binding signal (z-score),[13],-0.343
same,glycan array binding signal (z-score),[14],-0.084
same,glycan array binding signal (z-score),[15],-0.337
same,glycan array binding signal (z-score),[16],-0.343
same,glycan array binding signal (z-score),[17],-0.098
same,glycan array binding signal (z-score),[18],-0.347
same,glycan array binding signal (z-score),[19],0.034
same,glycan array binding signal (z-score),[20],0.136
same,glycan array binding signal (z-score),[21],0.101
same,glycan array binding signal (z-score),[22],-0.311
same,glycan array binding signal (z-score),[23],-0.149
